Measurements taken from the supplement of paper PMC11417369.
The list shows a part of the results.

What follows are sequences tested on PF3D7_0420300 AP2 domain 1 (GST-tagged) (assay: gcPBM binding intensity (ln(normalized median fluorescence intensity)); higher = stronger DNA binding).
How it was run: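 GST-tagged P. falciparum DNA-binding domains, expressed in E. coli (about 25 μg on average), were applied for 1 h to an Agilent 4 × 180k array of primer-extended double-stranded 36-bp intergenic genomic probes plus negative controls. The binding buffer was 1× PBS with 1% milk, 0.2 mg/ml BSA, 0.5% salmon testes DNA and 0.03% Triton X-100. Bound protein was detected with Alexa488 anti-GST antibody and scanned at 488 nm. Binding intensity is the highest Masliner-normalised natural-log median intensity across replicate spots of either probe orientation.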

| Sequence | gcPBM binding intensity (ln) |
| --- | --- |
| TTACACCTTAGGATCTGTACAAATATATGACAAATC [XGTACX_site4333] | 9.18 |
| TAATATTAAAAAGAGACACACAAAAATATTAAAAAA [CACACA_site3120] | 9.54 |
| AAGGTTTTGGGTTTTAATTAATTTAATATGATTATA [XGTACX_negctrl_site147] | 9.34 |
| TCTATACCTATTCTTACACACATATGTATAAATATA [CACACA_site6407] | 9.65 |
| TTGACAACTCTTTTCATACACACAAAAAAAAAAAAA [CACACA_site2362] | 9.19 |
| ACTAAAAAAATAAACACACAGATTTATATAATATAT [CACACA_site4884] | 9.6 |
| ATACAATTCTTACATTGTACTTTTTTTTTTTATCAC [XGTACX_site6327] | 9.23 |
| TGTATATCACATGAGAGGTGGAGATGGGGATAAATA [CACACA_negctrl_site1148] | 9.31 |
| TACAACCTTTAGACAAGTACAAGAATTATATGTGGC [XGTACX_site4581] | 9.4 |
| TAATACAGATTAAAAGGTACACTTATTTGGTATTAT [XGTACX_site4966] | 9.28 |
| TTAATATGAATTATTACATGCAACTAAATATATTTA [TGCATGCA_site490] | 9.09 |
| ACAAAATATATAGACACACAAACACAAATATGTTTT [CACACA_site3016] | 9.63 |
| ATTTAAAAAAAAACGGAATTTTTTTTTTTTTTAAAG [XGTACX_negctrl_site91] | 8.83 |
| ACATATATGTATAATACACACACTAATATATAATTG [CACACA_site1966] | 9.71 |
| ATATTCATATATTTACGTACATACATTTATATATTT [XGTACX_site7644] | 9.53 |
| TATATTAATGTTCATAGTACGTATGATTAGGAAAAA [XGTACX_site616] | 9.1 |
| GGAAAGACAGTTCACAGTACCCAGGAAATCTGCGGA [XGTACX_site4933] | 9.25 |
| TTTAGTTTTTATATAGCACACATATTGTGATTATGT [CACACA_site8316] | 9.19 |
| AATTTATAAAAGAAGAGGACACATATAAATATAAAT [XGTACX_site59] | 9.66 |
| TATCTTTATATATAGTGTACACATTAAACAAATCTC [XGTACX_site7381] | 9.18 |
| TATTAATGATAAGAATATTTTATATGATACATGCAT [CACACA_negctrl_site923] | 9.02 |
| AATAATTAACAAAAAAAAAAAAAAAAAAAAAAAAAA [GTGCAC_negctrl_site255] | 8.53 |

| Sequence | gcPBM binding intensity (ln) |
| --- | --- |
| TATAAATAAATATGTACACACATATATACCTTTCAT [CACACA_site7291] | 9.54 |
| TATGTATTATATATTTGTACTCATTCTAATTCCTTC [XGTACX_site7294] | 9.32 |
| TATTATATTTTTATTTGTACGTAAAATTAAGTTATG [XGTACX_site2405] | 9.16 |
| AAAAATATAAACAAACGTACGAAGTGATGATATATT [XGTACX_site2242] | 9.7 |
| GAATTGTATTGGTACTGTACAATTAAATTAAAAAAA [XGTACX_site1891] | 8.79 |
| TGTAGTCTGGAGAAGAGTACATAGTATCTGGTAGCT [XGTACX_site2029] | 9.17 |
| ACATAAAATTATTATACATGCATATTTAATTTTTTC [TGCATGCA_site353] | 9.16 |
| AAAAAAAAAAAACACACACACACACCCATATATAAA [CACACA_site1170] | 10.2 |
| TTTTTTGTTAAGTTGGTGCAAACAATAGTTATTGAC | 8.95 |
| GGAGCACCCAGACACACACACACATATATATATATA [CACACA_site336] | 10.1 |
| TATATCTACTACACACGTACACAAAATAAGATACCT [XGTACX_site7886] | 9.64 |
| AATAAAAAAATATGAAATTATGACATATAGCATTTG [TGCATGCA_negctrl_site160] | 9.21 |
| TACATAAATTAAAACACACACACACCCAAAAAAAAA [CACACA_site2261] | 10.1 |
| AAAAAATAAAAAGATACACACATATGTATAATATAC [CACACA_site1496] | 9.63 |
| GTGTATATTATTTTATCACACATGTACATATGTTAA [CACACA_site5473] | 9.4 |
| GTTAAAAGAAAAATATGTACATAAAAAAATTAGAAA [XGTACX_site578] | 9.26 |
| CTCTTGTTTCCATATAGTACGTAATAATATATACAA [XGTACX_site2428] | 9.27 |
| TATATATATATATGATGTACACATTTTATTATTTGT [XGTACX_site1147] | 9.31 |
| TTTTCAATTAAAAAAAAATTATATTTTATTATTACA [CACACA_negctrl_site142] | 8.7 |
| AAGATGGTAAAGAATTGTACGCGCATATATATATTT [XGTACX_site3904] | 9.46 |
| AATTTGATAATATCATGTACATGAAAGAATTCATGA [XGTACX_site8463] | 9.04 |
| ATAATGATATATAGTACACACAAAAATGGAAGTAAA [CACACA_site7541] | 9.88 |
